Laboratory results reported in article PMC3739749.
These are yes or no findings as the source states them, for the method shown. Some entries that bind do so weakly or less than the wild type.

Amino acid sequences for entries named in this document (tags omitted).
UniProt O49839: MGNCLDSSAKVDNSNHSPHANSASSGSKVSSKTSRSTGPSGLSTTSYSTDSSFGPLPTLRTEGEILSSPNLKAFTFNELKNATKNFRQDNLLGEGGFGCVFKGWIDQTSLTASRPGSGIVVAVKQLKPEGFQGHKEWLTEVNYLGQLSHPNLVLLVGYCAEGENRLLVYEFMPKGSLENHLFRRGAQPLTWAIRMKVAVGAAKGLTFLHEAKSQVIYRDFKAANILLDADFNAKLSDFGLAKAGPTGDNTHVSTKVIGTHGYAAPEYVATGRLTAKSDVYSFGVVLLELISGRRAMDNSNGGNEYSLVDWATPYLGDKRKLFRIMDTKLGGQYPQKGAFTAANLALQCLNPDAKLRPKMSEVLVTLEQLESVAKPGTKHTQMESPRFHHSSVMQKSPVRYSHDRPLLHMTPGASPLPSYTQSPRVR
UniProt Q9SY91: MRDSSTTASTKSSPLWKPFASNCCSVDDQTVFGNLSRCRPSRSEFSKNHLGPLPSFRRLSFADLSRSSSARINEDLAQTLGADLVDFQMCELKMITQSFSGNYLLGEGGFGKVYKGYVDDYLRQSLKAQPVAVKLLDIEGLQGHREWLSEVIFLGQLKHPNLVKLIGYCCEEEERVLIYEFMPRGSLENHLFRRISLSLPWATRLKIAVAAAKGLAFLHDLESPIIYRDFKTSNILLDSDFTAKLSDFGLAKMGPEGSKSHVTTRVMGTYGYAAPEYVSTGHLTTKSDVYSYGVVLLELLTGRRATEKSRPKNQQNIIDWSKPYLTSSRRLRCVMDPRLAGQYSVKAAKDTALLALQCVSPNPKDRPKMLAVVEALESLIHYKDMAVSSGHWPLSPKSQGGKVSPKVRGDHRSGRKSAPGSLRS

T1: wild-type XopAC (GAL4 bait, pGBKT7-xopAC) (Xanthomonas campestris pv. campestris strain 8004) (UniProt Q4UWF4)
T1 sequence: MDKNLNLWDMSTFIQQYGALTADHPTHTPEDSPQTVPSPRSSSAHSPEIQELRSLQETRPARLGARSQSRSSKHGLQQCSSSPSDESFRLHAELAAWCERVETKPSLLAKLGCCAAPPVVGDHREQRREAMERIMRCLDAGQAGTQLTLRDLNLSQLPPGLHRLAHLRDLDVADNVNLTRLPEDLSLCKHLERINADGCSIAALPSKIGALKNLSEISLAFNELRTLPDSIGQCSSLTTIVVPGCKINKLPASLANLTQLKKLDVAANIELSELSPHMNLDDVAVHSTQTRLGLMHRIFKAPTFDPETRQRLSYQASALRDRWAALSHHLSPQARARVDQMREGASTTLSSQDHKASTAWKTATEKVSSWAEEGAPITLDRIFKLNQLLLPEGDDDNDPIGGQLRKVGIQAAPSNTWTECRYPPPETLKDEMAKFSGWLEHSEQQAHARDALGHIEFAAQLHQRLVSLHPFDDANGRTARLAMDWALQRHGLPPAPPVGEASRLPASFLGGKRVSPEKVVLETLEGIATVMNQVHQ


Target: T1, wild-type XopAC (GAL4 bait, pGBKT7-xopAC) (Xanthomonas campestris pv. campestris strain 8004)
Experiment: two-hybrid; GAL4 system (Clontech), pairwise: XopAC variants as bait (pGBKT7-GW), RLCK as prey (pGADT7), S. cerevisiae AH109; ten-fold serial dilutions spotted on -WL, -WLH and -WLHA, pictures after 4 days; at least 3 clones

Molecule	binding
full-length PBL2 (GAL4 prey, pGADT7) (from UniProt O49839 1-426)	no binding
central kinase domain of RIPK (residues 87-367) (GAL4 prey, pGADT7) (from UniProt Q9ZUF4 87-367) (domain or fragment)	no binding
full-length PIX1 (GAL4 prey, pGADT7) (from UniProt Q9SY91 1-424)	binds
full-length PIX7 (GAL4 prey, pGADT7) (protein, UniProt Q9LFP7 1-493) MGLDAVKAKGNWKSEKPKETENKNHKKKNGDDNKSRNEEEEEGEASGCWVKFRFMIGCIPSKSDLDASSSSIYGSNCTVTTMESKSANEKSNDQPVGQVSSTTTTSNAESSSSTPVISEELNISSHLRKFTFNDLKLSTRNFRPESLLGEGGFGCVFKGWIEENGTAPVKPGTGLTVAVKTLNPDGLQGHKEWLAEINFLGNLLHPNLVKLVGYCIEDDQRLLVYEFMPRGSLENHLFRRSLPLPWSIRMKIALGAAKGLSFLHEEALKPVIYRDFKTSNILLDADYNAKLSDFGLAKDAPDEGKTHVSTRVMGTYGYAAPEYVMTGHLTSKSDVYSFGVVLLEMLTGRRSMDKNRPNGEHNLVEWARPHLLDKRRFYRLLDPRLEGHFSIKGAQKVTQLAAQCLSRDPKIRPKMSDVVEALKPLPHLKDMASSSYYFQTMQAERLKNGSGRSQGFGSRNGQHQPVFRTLSSPHGSSPYRHQIPSPKPKGATT	binds
full-length PIX8-RIPK (GAL4 prey, pGADT7) (protein, UniProt Q9ZUF4 1-462) MAVKKKVSWRSLIVGCLGDPETLMASSKKPKRKNDVIKKQSSFQRLSILDMSNPSSNTLSEDLSISLAGSDLHVFTLAELKVITQSFSSTNFLGEGGFGPVHKGFIDDKLRPGLKAQPVAVKLLDLEGLQGHREWLTEVMFLGQLKHKNLVKLIGYCCEEEHRTLVYEFMPRGSLENQLFRRYSASLPWSTRMKIAHGAATGLQFLHEAENPVIYRDFKASNILLDSDYTAKLSDFGLAKDGPEGDDTHVSTRVMGTQGYAAPEYIMTGHLTARSDVYSFGVVLLELLTGRRSVDKKRSSREQNLVDWARPMLNDPRKLSRIMDPRLEGQYSETGARKAATLAYQCLSHRPKNRPCMSAVVSILNDLKDYNDIPMGTFTYTVPNTPDNKEDDGRVGNKPRKSSHHHHHQQQQSNHPRSSPSPTTKSPSPTAKSPRNSTENHRRTLRNGVNSPLRSEAGGERY	no binding
